In PubChem BioAssay AID1745853 (National Center for Advancing Translational Sciences (NCATS), 2022):
The other results are listed elsewhere or left out. Further columns of the screen follow, without active or inactive calls.

What was measured:
Test in all cases: Primary Screen for Target Class Profiling of Small Molecule Inhibitors of Methyltransferases
[1] = biological target: Glycine N-methyltransferase (Homo sapiens) (UniProt Q14749); settings: purified enzyme, MTase-Glo SAH luminescence; measured here: GNMT inhibition; at 40 µM; stronger effect = lower value
In short: (§1)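 Each enzyme was assayed with SAM and its substrate. SAH formation detected by MTase-Glo luminescence; single-point 40 uM screen[…].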

[2] = biological target: Guanidinoacetate N-methyltransferase (Homo sapiens) (UniProt Q14353); settings: purified enzyme, MTase-Glo SAH luminescence; measured here: GAMT inhibition; at 40 µM; stronger effect = lower value
In short: as §1

[3] = biological target: Histamine N-methyltransferase (Homo sapiens) (UniProt P50135); settings: purified enzyme, MTase-Glo SAH luminescence; measured here: HNMT inhibition; at 40 µM; stronger effect = lower value
In short: as §1

[4] = biological target: Nicotinamide N-methyltransferase (Homo sapiens) (UniProt P40261); settings: purified enzyme, MTase-Glo SAH luminescence; measured here: NNMT inhibition; at 40 µM; stronger effect = lower value
In short: as §1

[5] = biological target: Phenylethanolamine N-methyltransferase (Homo sapiens) (UniProt P11086); settings: purified enzyme, MTase-Glo SAH luminescence; measured here: PNMT inhibition; at 40 µM; stronger effect = lower value
In short: as §1
On the % scale 0 is the no-effect control and ±100 the full control effect.

Structure (SMILES) | activity change, negative = inhibition [1] [%] | activity change, negative = inhibition [2] [%] | activity change, negative = inhibition [3] [%] | activity change, negative = inhibition [4] [%] | activity change, negative = inhibition [5] [%]
Clc1ccc(C(c2ccc(Cl)cc2)n2cc[n+](CC(OCc3ccc(Cl)cc3Cl)c3ccc(Cl)cc3Cl)c2)cc1 (configuration not stated) | -16.4 | 9.94 | -70.6 | -49.7 | -2.08
COc1ccc(NC(=O)[C@@H]2C[C@H](c3ccc(F)cc3)N(Cc3ccccc3Cl)C2)cn1 | -3.31 | -0.168 | 0.525 | -7.45 | -2.88
COc1ccc(-c2n[nH]n3c2nc(=O)c2ccc(C(=O)NCCC(C)C)cc23)cc1 | 1.57 | 1.15 | 8.12 | 5.1 | -2.93
CC(=O)OC1C(OC(=O)c2ccccc2)C2C(C)(C)CCC(OC(C)=O)C2(C)C23CCC(C)(C2)C(=O)CC13 (configuration not stated) | 4.25 | 3.04 | 4.04 | -13 | 3.02
COc1ccccc1C(=O)N1CCCN(c2nnc3ccccn23)CC1 | -1.68 | -2.47 | -1.23 | -5.08 | 0.051
COc1ccc(-c2cc3n(n2)CC(C)(C(=O)NCc2ccccc2)N(Cc2cccc(OC)c2)C3=O)cc1 (configuration not stated) | 2.6 | 2.87 | 7.15 | 0.464 | 0.06
CN1C(=O)c2cc3ccccc3n2CC1(C)C(=O)NCC(=O)NCCc1cccs1 (configuration not stated) | 1.49 | 0 | 11.4 | 1.99 | 5.18
COc1ccc(OCC(=O)N2CCN(c3cc(-c4ccccc4)[nH]n3)CC2)cc1 | -10.7 | -13.5 | -4.11 | -9.38 | -5.18
CCCN1C(=O)c2cc3occc3n2CC1(C(=O)NC1CCCCCCC1)c1ccccc1 (configuration not stated) | 0.798 | 3.64 | -5.17 | -4.25 | -4.62
CCCN1C(=O)c2c(C(=O)NCc3cccc(F)c3)ncn2CC1(C)C(=O)NCCC(C)C (configuration not stated) | -2.02 | 2.27 | -4.05 | 2.05 | 3.91
COc1ccc2cc3n(c2c1)CC(C)(C(=O)NC1CCCCC1)N(c1ccc(OC)c(OC)c1)C3=O (configuration not stated) | 3.54 | 2.28 | 8.46 | 9.09 | 3.11
COC(=O)C[C@H]1C(C)(C)[C@H](OC(=O)C(C)C)C2CC3=C4CC(=O)O[C@@H](c5ccoc5)[C@]4(C)CCC3[C@@]1(C)C2=O (some centres not stated) | 3.01 | 2.76 | 8.3 | -8.32 | -5.8
O=C(O)CC1CC(c2ccccc2)=NO1 (configuration not stated) | -3.33 | -3.38 | 1.16 | -15.7 | -2.95
COc1ccccc1CNC(=O)C1c2c(n(C)c3ccccc23)SCC(=O)N1c1cccc(Cl)c1 (configuration not stated) | 10.6 | 0.794 | 2.41 | -3.41 | 4.34
C=C1C(O)CCC2(C)CC3(OC)OC(=O)C(C)=C3CC12 (configuration not stated) | 2.61 | 8.47 | 8.13 | -5.3 | 6.91
COc1ccc(OC)c(S(=O)(=O)N2CCCC3(CC2)CNC(=O)O3)c1 (configuration not stated) | 0.255 | 0 | 3.19 | 1.96 | 4.87
CC1CCC(NC(=O)C2(C)Cc3ccccc3C(=O)N2Cc2ccc(Cl)cc2)CC1 (configuration not stated) | -6.08 | 6.97 | 1.64 | -3.1 | -3.19
CC1=C(C)C(=O)OC(C(C)C2C(O)CC3C4C5OC5C5(O)CC(OC6OC(CO)C(OC7OC(C)C(O)C(O)C7O)C(O)C6O)CC(O)C5(C)C4CCC32C)C1 (configuration not stated) | -3.29 | -7.52 | 7.21 | -19.2 | -11.1
O=C1CCC(CNS(=O)(=O)c2cccnc2)CCN1Cc1ccccc1 (configuration not stated) | -1.22 | -0.904 | 0.198 | -5.4 | 1.41
CC(C)CCn1c(=O)c2ccc(C(=O)NC(C)C)cc2n2c(=O)n(CC(=O)NC(C)C)nc12 | -1.38 | 3.98 | -1.64 | -6.32 | -0.462

Structure (SMILES) | activity change, negative = inhibition [1] [%] | activity change, negative = inhibition [2] [%] | activity change, negative = inhibition [3] [%] | activity change, negative = inhibition [4] [%] | activity change, negative = inhibition [5] [%]
CS(=O)(=O)N1C[C@@H]2OCC(=O)N(Cc3ccncc3)[C@@H]2C1 | -4.58 | -5.78 | -2.88 | -10.5 | -4.14
CN(CC1CCOC1)S(=O)(=O)Cc1cccc(Cl)c1 (configuration not stated) | -5.01 | -8.31 | -4.59 | -10.4 | -9.93
COc1ccc(NC(=O)N2Cc3c(sc4c3CCCC4)-n3cccc3C2c2cccc(OC)c2)cc1 (configuration not stated) | 1.15 | 0 | 4.98 | 2.02 | 4.79
COc1ccc(C(=O)Cn2nc3n(Cc4ccc(F)cc4)c(=O)c4ccccc4n3c2=O)cc1 | 2.67 | 0 | 5.07 | 4.35 | 2.74
O=C(COc1ccc2c(-c3ccccc3)cc(=O)oc2c1)c1ccccc1 | -2.79 | 3.71 | -2.99 | -10.2 | -10.6
CCOc1ccccc1OCCNC(C)Cc1ccc(OC)c(S(N)(=O)=O)c1 (configuration not stated) | -4.01 | – | -2.73 | – | –
O=C(Cn1ccc2cc(S(=O)(=O)N3CCCCC3)ccc21)NCc1ccc(F)cc1 | 5.67 | 2.43 | 2.37 | 2.67 | 0.25
COc1cc2c(cc1O)C(c1ccc(O)cc1)C(C)C(C)C2 (configuration not stated) | -24.6 | -11 | -27.7 | -31.3 | -18.9
CCOc1ccc(CCNC(=O)c2cc3n(n2)CC(C)(C(=O)NCc2ccccc2)N(C)C3=O)cc1 (configuration not stated) | 0.17 | 0 | 4.49 | 1.84 | 2.64
Cc1cc(C)cc(N2C(=O)c3cc4occc4n3CC2(C)C(=O)NC2CCCCCCC2)c1 (configuration not stated) | 0.682 | 0.289 | 5.14 | 1.59 | 1.48
COc1ccc(CNC(=O)Cn2ccc3cc(S(=O)(=O)N4CCC(C)CC4)ccc32)cc1 | 5.48 | 0.131 | 6.28 | 6.02 | 5.67
O=C(Cn1ccc2ccccc2c1=O)N1CCCOC(Cn2cccn2)C1 (configuration not stated) | -11.1 | -10.7 | -1.95 | -8.53 | -1.55
Cc1ccc(-c2ccccc2CN2CCN([S+](=O)([O-])c3cccc(C(F)(F)F)c3)CC2)cc1Cl | -6.8 | -6.67 | -2.47 | -11 | -8.53
COc1ccccc1CNC(=O)Cn1ccc2cc(S(=O)(=O)N3CCCCC3)ccc21 | 6.93 | 2.35 | 2.77 | 2.84 | 3.83
O=C1CC2CCCC(C1)N2C(=O)c1cc(F)ccc1Br | -2.14 | -3.76 | -0.467 | -2.19 | -1.15
CCN(CCCNC(=O)CCc1nnc2n(Cc3ccccc3)c(=O)c3ccccc3n12)c1ccccc1 | 0.504 | 3.34 | -11 | -9.85 | -2.02
CCc1ccc(CN2C(=O)c3cc4ccccc4n3CC2(C)C(=O)NCCCOC(C)C)cc1 (configuration not stated) | -4.58 | 3.8 | -2.4 | -1.37 | -3.19
Cc1nc(-c2cn(C3CCCN(C(=O)C(C)Oc4ccccc4)C3)nn2)no1 (configuration not stated) | 0.953 | 1.53 | -1.15 | 0.165 | -1.41
COC(=O)c1cc2n(n1)CC(C)(C(=O)NC1CCCCCC1)N(c1ccc(F)cc1C)C2=O (configuration not stated) | 4.57 | 0.049 | -6.27 | 11.6 | 7.88
CCCN1C(=O)c2cc(C(=O)N3CCN(c4ccccc4F)CC3)nn2CC1(C)C(=O)NC1CCCC1 (configuration not stated) | 6.15 | 0 | 11.4 | 12 | 4.69

Structure (SMILES) | activity change, negative = inhibition [1] [%] | activity change, negative = inhibition [2] [%] | activity change, negative = inhibition [3] [%] | activity change, negative = inhibition [4] [%] | activity change, negative = inhibition [5] [%]
N#Cc1ccc(O[C@@H]2CCOC[C@H]2NC(=O)CCCn2cncn2)cc1 | -2.31 | 1.7 | 1.71 | 0.407 | -15.2
Cc1oc(C(=O)O)cc1COc1ccc2c(-c3ccccc3)cc(=O)oc2c1C | -45.6 | -6.03 | -17.9 | -16.2 | -30.5
CCC(C)NC(=O)c1ccc2c(=O)n(C)c3nn(CC(=O)Nc4ccc(Cl)cc4)c(=O)n3c2c1 (configuration not stated) | 2.4 | 3.03 | 0.206 | 0.429 | -2.46
CC1(C)CC[C@]2(C(=O)O)CC[C@]3(C)C(=CCC4[C@@]5(C)CC[C@H](O[C@@H]6O[C@H](C(=O)O)[C@@H](O)[C@H](O)[C@H]6O)C(C)(CO)C5CC[C@]43C)C2C1 (some centres not stated) | 3.13 | -3.28 | 7.3 | -13.9 | -2.14
O=C(c1cc(CC2(NCc3ccccc3F)COC2)no1)N1CCCCC1 | -7.21 | -8.94 | -4.09 | -9.23 | 9.87
CC1CCC2C(C(=O)O)=COC(O[C@@H]3O[C@H](CO)[C@@H](O)[C@H](O)[C@H]3O)C12 (some centres not stated) | -3.85 | -7.03 | 4.33 | -13.7 | -9.31
COc1cccc(N2C(=O)c3cc(-c4ccccc4)nn3CC2(C)C(=O)NCc2ccccc2OC)c1 (configuration not stated) | -7.31 | 1.39 | -6.21 | -11.2 | -10.5
O=C1C(Cc2ccc(O)cc2)N2C(=O)CCN(C(=O)NCc3ccccc3)C2CN1Cc1cccc2ccccc12 (configuration not stated) | -4.22 | 6.38 | 6.19 | -19 | -4.71
CCN(c1cc(-c2ccc(CN3CCOCC3)cc2)cc(C(=O)NCc2c(C)cc(C)[nH]c2=O)c1C)C1CCOCC1 | -7.2 | 0.224 | -3.75 | -18.8 | -10.9
O=S(=O)(c1ccccc1)c1nnn2c1nc(NC1CCN(Cc3ccccc3)CC1)c1cc(Cl)ccc12 | -2.04 | 3.82 | -6.74 | -5.2 | -4
CC1CC(O)C2(C)C(C(=O)O)=CCCC2C1(C)CCc1ccoc1 (configuration not stated) | 0.768 | 2.21 | 8.8 | -17.1 | 5.07
C=C1C(=O)OC2/C=C(\C)CC/C=C(\C(=O)O)CC/C=C(\C)CCC12 (configuration not stated) | 1.39 | 3.87 | 11.3 | -11.7 | 5.15
CCn1cc(CN(C)CC(=O)N2CCCCCC2)ccc1=O | -2.2 | -0.662 | 0.1 | -0.398 | 2.36
O=C(C1CCC1)N1CCC[C@H]1c1nc(-c2ccc(F)cc2)n[nH]1 | 3.23 | -2.04 | 0.745 | -8.07 | 10.3
Cc1ccc(S(=O)(=O)NCCn2c(CCc3ccccc3)nc3ccccc32)c(C)c1 | -5.78 | 0 | 0.577 | -11 | 2.53
COc1ccccc1-c1nc2nccc(-c3cc(OC)c(OC)c(OC)c3)n2n1 | -14 | -7.44 | -19.1 | -10.6 | -2.9
COc1cc(/C=C/C(=O)OC[C@H]2O[C@@H](OC3CC(C)=C(C(=O)O)C(C)(C)C3)[C@H](O)[C@@H](O)[C@@H]2O)cc(OC)c1O (some centres not stated) | 0.684 | 5.84 | 8.76 | -6.48 | 3.04
CCCCCCCCCCCCCCCCCC(=O)OC(CC(=O)O)C[N+](C)(C)C (configuration not stated) | -7.72 | 4.95 | 1.33 | -5.66 | 0.875
